Results published in article PMC10480448.
No constants are given. Whether binding was seen depends on the method and setting. Binding seen in cells or lysates may run through a third protein. Some results given as binding are weak or reduced against the parent protein; the word gives no strength. Where a sequence is shown, tags or fusion partners need not be part of it.

By UniProt entry, the sequences of proteins in these tests, tags left out. Where a name states a change or a piece, a line headed by the entry shows the natural chain unless it says otherwise.
UniProt Q86WV6: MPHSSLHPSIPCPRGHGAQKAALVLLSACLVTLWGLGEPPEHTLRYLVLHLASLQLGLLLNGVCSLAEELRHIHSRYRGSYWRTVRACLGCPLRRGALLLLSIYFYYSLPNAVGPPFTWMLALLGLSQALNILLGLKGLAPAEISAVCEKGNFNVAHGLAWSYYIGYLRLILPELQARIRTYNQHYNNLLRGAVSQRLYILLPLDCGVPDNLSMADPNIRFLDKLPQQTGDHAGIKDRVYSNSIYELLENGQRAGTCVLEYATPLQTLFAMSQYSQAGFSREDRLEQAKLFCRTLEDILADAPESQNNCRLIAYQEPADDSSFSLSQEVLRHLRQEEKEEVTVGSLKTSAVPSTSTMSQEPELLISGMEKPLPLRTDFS

B1: FLAG-TBK1 (WT), Q9UHD2 1-729 (protein)
chain: MQSTSNHLWLLSDILGQGATANVFRGRHKKTGDLFAIKVFNNISFLRPVDVQMREFEVLKKLNHKNIVKLFAIEEETTTRHKVLIMEFCPCGSLYTVLEEPSNAYGLPESEFLIVLRDVVGGMNHLRENGIVHRDIKPGNIMRVIGEDGQSVYKLTDFGAARELEDDEQFVSLYGTEEYLHPDMYERAVLRKDHQKKYGATVDLWSIGVTFYHAATGSLPFRPFEGPRRNKEVMYKIITGKPSGAISGVQKAENGPIDWSGDMPVSCSLSRGLQVLLTPVLANILEADQEKCWGFDQFFAETSDILHRMVIHVFSLQQMTAHKIYIHSYNTATIFHELVYKQTKIISSNQELIYEGRRLVLEPGRLAQHFPKTTEENPIFVVSREPLNTIGLIYEKISLPKVHPRYDLDGDASMAKAITGVVCYACRIASTLLLYQELMRKGIRWLIELIKDDYNETVHKKTEVVITLDFCIRNIEKTVKVYEKLMKINLEAAELGEISDIHTKLLRLSSSQGTIETSLQDIDSRLSPGGSLADAWAHQEGTHPKDRNVEKLQVLLNCMTEIYYQFKKDKAERRLAYNEEQIHKFDKQKLYYHATKAMTHFTDECVKKYEAFLNKSEEWIRKMLHLRKQLLSLTNQCFDIEEEVSKYQEYTNELQETLPQKMFTASSGIKHTMTPIYPSSNTLVEMTLGMKKLKEEMEGVVKELAENNHILERFGSLTMDGGLRNVDCL
B2: FLAG-TBK1 (WT) (protein, UniProt Q9UHD2 1-729)
chain: B1 chain

Assays:
[1] = target: MYC-tagged STING (WT), Q86WV6; assay: co-IP; HEK293T cells transfected with tagged proteins; whole-cell extracts incubated with anti-myc beads, washed five times with low-salt lysis buffer, immunoblot; some samples treated with Kyn or cGAMP; conditions: remark: other sources report otherwise
MYC-STING (K236R) = MYC-STING (K236R) (UniProt Q86WV6); assay: as above

Row | Binder | binding [1] | binding (MYC-STING (K236R))
1 | B1 | binds | –
2 | B2 | – | binds
